The full ranking holds about 16,000 sequences; the median of “Z-score” is about -0.37, and the highest 2% start at about 3.2. This is one part of the list.
What follows are sequences tested on RBM10 RRM1-ZnF (GST-tagged construct) (assay: RNAcompete 7-mer binding Z-score; higher = stronger binding preference).
Procedure, shortened: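 GST-tagged RBM10 constructs (20 pmol) and a designed pool of 241 399 RNAs up to 41 nt (1.5 nmol) were allowed to bind for 30 min at 4°C in 1 ml Hepes pH 7.8 buffer with glutathione Sepharose beads. After four 2-min washes at 4°C, bound RNA was identified by microarray hybridisation. Enrichment was scored per heptamer motif as a one-sided Z-score across the probes containing it.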

| Sequence | RNAcompete 7-mer binding Z-score |
| --- | --- |
| GCGUCAC | -0.0252 |
| GUAACCA | -0.256 |
| UGGGUGU | 3.53 |
| CCUCCAC | -0.685 |
| AGACUUA | -0.724 |
| AAGUCUC | -0.668 |
| AUUGGUU | 1 |
| UUUUUCC | -0.805 |
| AUCAGUU | -0.545 |
| CGCUCUA | -0.72 |
| UCCGGCU | -0.607 |
| UAGUAUG | 0.0918 |
| CCGUGCG | -0.21 |
| AGUCGUA | -0.145 |
| UAAGAAU | -0.0999 |
| CUUGCAU | -0.828 |
| GAGCUAU | -0.0999 |
| UGGUAAA | 1.13 |
| ACACGUU | -0.516 |
| UUGCGUA | -0.308 |
| CCGGUCG | -0.331 |
| CAGAAGG | 1.57 |
| UCAUACC | -0.919 |

| Sequence | RNAcompete 7-mer binding Z-score |
| --- | --- |
| CGGGAUA | 1.56 |
| GUCUAAC | -0.558 |
| ACCAAGC | -0.639 |
| CAUCGGA | -0.331 |
| GAACCUU | -0.88 |
| AGGCUUA | -0.279 |
| CCUCCUA | -0.688 |
| GGAACGG | 4.07 |
| UCGGAGG | 1.34 |
| UUCAUGU | -0.617 |
| AGCGGGC | 1.51 |
| GACUAAA | -0.347 |
| AUCACGU | -0.457 |
| GUCAAAU | -0.334 |
| AUCGACU | -0.766 |
| AAAAUCA | -0.558 |
| GAGCAGC | 0.183 |
| UUAUCUA | -0.623 |
| ACUAUAG | -0.256 |
| UGCUUAA | -0.665 |
| CGGAACA | 0.381 |
| UCGCCAC | -0.425 |
| ACGGUAC | 0.41 |

| Sequence | RNAcompete 7-mer binding Z-score |
| --- | --- |
| AUCGGGG | 2.27 |
| CUGACUU | -0.776 |
| AUCCGGU | -0.227 |
| CAUGCAU | -0.457 |
| GUAUGGG | 4.25 |
| AGUCAUC | -0.681 |
| AACGCGG | 0.498 |
| CAGUUGU | -0.613 |
| CCGGGGU | 2.08 |
| GGUACUC | 0.000789 |
| AAAGCUC | -0.591 |
| ACGAAGG | 2.44 |
| GGGUGCC | 1.91 |
| AGUUACU | -0.623 |
| UGAUCUU | -0.782 |
| AGCUUAU | -0.646 |
| AUACCGC | -0.714 |
| UAGUAGA | 0.469 |
| GGUUUUU | 0.842 |
| UGGGACU | 1.85 |
| AGAGCCC | -0.831 |
| UGUCUGC | -0.617 |
| CGGUUCU | -0.597 |

| Sequence | RNAcompete 7-mer binding Z-score |
| --- | --- |
| GAUUGCU | -0.324 |
| UCGUAAG | -0.441 |
| AGAGUUA | 0.00404 |
| GGAGUGA | 2.38 |
| ACAGCAG | -0.0285 |
| AUUGUGG | 1.61 |
| UCGUCCA | -0.604 |
| UCUAGUC | -0.694 |
| CGUUACU | -0.558 |
| AUUUAGC | -0.704 |
| CAUCGGC | -0.428 |
| AUGUCGA | -0.357 |
| CGCUCAA | -0.526 |
| AGGUUGG | 3.06 |
| CAAUCGC | -0.837 |
| GGUUGGA | 3.17 |
| UCGUCGC | -0.571 |
| GGCCAAU | -0.305 |
| ACUGCAA | -0.642 |
| UUCUCGG | -0.425 |
| AGGUUGC | 0.781 |
| GAUCCUU | -0.821 |
| CUAACCU | -0.798 |

| Sequence | RNAcompete 7-mer binding Z-score |
| --- | --- |
| GUCAGUU | -0.383 |
| UCUCGGG | 0.095 |
| GGGGGCC | 1.44 |
| GUACCCA | -0.759 |
| GGGACGG | 3.45 |
| UGCAAGG | 1.49 |
| CACUCUA | -0.789 |
| CCCGCGC | -0.181 |
| CCCUUCC | -0.552 |
| UUUCUAG | -0.681 |
| CUUAGAG | -0.324 |
| GGCGUAU | 0.131 |
| UGUCAGC | -0.314 |
| AUAACGU | -0.194 |
| CGUAGUC | -0.506 |
| AUCACAC | -0.574 |
| CUCAACA | -0.652 |
| UGGUGAC | 1.08 |
| AGUCUGA | -0.444 |
| AAAAAAU | -0.223 |
| AGUGAGU | 0.673 |
| GUACAUC | -0.305 |
| CUUUAGU | -0.802 |

| Sequence | RNAcompete 7-mer binding Z-score |
| --- | --- |
| UACAGAU | -0.256 |
| UGAUAUA | -0.162 |
| AGGUUAU | 0.751 |
| GGAUCGC | 0.355 |
| UCGAAUC | -0.675 |
| GGACGGA | 2.32 |
| UGCUGAC | 0.176 |
| GGUCCGC | -0.168 |
| GGUGGUU | 2.61 |
| UGUCAUU | -0.714 |
| UGUGACG | 0.423 |
| GAAUCCG | -0.337 |
| GGCAAUA | 0.0885 |
| ACGUGCU | -0.509 |
| CUAGUCG | -0.431 |
| GCCGUGG | 1.11 |
| GGACCCG | 0.345 |
| AUCUCGU | -0.782 |
| ACGAACA | -0.298 |
| GCUGAUA | -0.035 |
| GGGGGCG | 2.47 |
| CGCGCAG | 0.218 |
| AACUUAU | -0.633 |

| Sequence | RNAcompete 7-mer binding Z-score |
| --- | --- |
| AACGGAC | 0.413 |
| AAGACAA | 0.0593 |
| AAAUGAU | -0.022 |
| ACGCCUU | -0.87 |
| UCACUUG | -0.665 |
| GAGACGC | 0.0593 |
| AGAAGGG | 3.86 |
| ACAGGCA | 0.699 |
| UAAAUGA | -0.318 |
| GCCUCGA | -0.5 |
| CGAUCCU | -0.86 |
| AAUUGUA | -0.272 |
| UCACCGA | -0.636 |
| GAUAGCA | 0.287 |
| CUCCGGC | -0.587 |
| GCCAUUU | -1.02 |
| CUGACCG | -0.539 |
| UAUCGCA | -0.513 |
| UCAGCGA | -0.532 |
| UAUCAGU | -0.431 |
| UAGAGCG | 0.677 |
| CGUUAAA | -0.522 |
| UUUAGAC | -0.649 |

| Sequence | RNAcompete 7-mer binding Z-score |
| --- | --- |
| CAAAGGA | 0.992 |
| GCAUGGG | 2.76 |
| GGCUGAA | 0.706 |
| CUUGUUA | -0.698 |
| UAAGCCA | -0.753 |
| AGCGUGA | 0.332 |
| UGCCACA | -0.35 |
| UGUUGCC | -0.457 |
| UCCGGUA | -0.337 |
| AGUUGAG | 1.05 |
| CCCCAAU | -0.532 |
| CCUACGG | -0.295 |
| AUAGAAU | -0.132 |
| AUCAAGU | -0.36 |
| CGUUCCU | -0.811 |
| CACCGUC | -0.464 |
| GAGCUGG | 1.88 |
| AUCUAUC | -0.688 |
| GUAGUUA | 0.128 |
| ACUCUAC | -0.753 |
| GAGGAGU | 1.54 |
| GAGCGUG | 0.972 |
